# Test results from the supplement of paper PMC8728848.
# This is one part of the list.
# B1: Gal 8 (Homo sapiens) (protein)
# chain: MLSLNNLQNIIYNPVIPYVGTIPDQLDPGTLIVICGHVPSDADRFQVDLQNGSSVKPRADVAFHFNPRFKRAGCIVCNTLINEKWGREEITYDTPFKREKSFEIVIMVLKDKFQVAVNGKHTLLYGHRIGPEKIDTLGIYGKVNIHSIGFSFSSDLQSTQASSLELTEISRENVPKSGTPQLQTVSPSWDLQGHGSETFCSVLWTRVFLEIAFCRPIGLTVASFQSLPFAARLNTPMGPGRTVVVKGEVNANAKSFNVDLLAGKSKDIALHLNPRLNIKAFVRNSFLQESWGEEERNITSFPFSPGMYFEMIIYCDVREFKVAVNGVHSLEYKHRFKELSSIDTLEINGDIHLLEVRSW
# Tests used:
# Experiment in all cases: glycan array binding signal (z-score within array); higher = stronger binding
# Conditions in all cases: glycan notation: IUPAC condensed, linker removed
# [1] = molecular target: Gal(b1-3)GlcNAc(a1-3)Gal(b1-4)GlcNAc
# In short: (§1)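 Glycan array data were curated from 3228 arrays in the Consortium for Functional Glycomics database and kept only where the protein sequence was available. Glycan names were converted to IUPAC-condensed notation, and columns mapping to the same glycan were averaged. The binding signal is a within-array Z-score, averaged across arrays of the same protein sequence at different concentrations or buffers and across linkers. Negative Z-scores can be read as non-binding.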
# [2] = molecular target: Gal(b1-3)GlcNAc(a1-6)Gal(b1-4)GlcNAc
# In short: as §1
# [3] = molecular target: Gal(b1-3)GlcNAc(b1-2)Man
# In short: as §1
# [4] = molecular target: Gal(b1-3)GlcNAc(b1-2)Man(a1-3)[Gal(b1-3)GlcNAc(b1-2)Man(a1-6)]Man(b1-4)GlcNAc(b1-4)GlcNAc
# In short: as §1
# [5] = molecular target: Gal(b1-3)GlcNAc(b1-2)Man(a1-3)[Gal(b1-3)GlcNAc(b1-2)Man(a1-6)]Man(b1-4)GlcNAc(b1-4)[Fuc(a1-6)]GlcNAc
# In short: as §1
# [6] = molecular target: Gal(b1-3)GlcNAc(b1-2)Man(a1-3)[GlcNAc(b1-4)][Gal(b1-3)GlcNAc(b1-2)Man(a1-6)]Man(b1-4)GlcNAc(b1-4)GlcNAc
# In short: as §1
# [7] = molecular target: Gal(b1-3)GlcNAc(b1-2)[Gal(b1-3)GlcNAc(b1-6)]Man(a1-6)[Gal(b1-3)GlcNAc(b1-2)Man(a1-3)]Man(b1-4)GlcNAc(b1-4)GlcNAc
# In short: as §1
# [8] = molecular target: Gal(b1-3)GlcNAc(b1-3)Gal(b1-3)GlcNAc
# In short: as §1
# [9] = molecular target: Gal(b1-3)GlcNAc(b1-3)Gal(b1-4)Glc
# In short: as §1
# [10] = molecular target: Gal(b1-3)GlcNAc(b1-3)Gal(b1-4)GlcNAc
# In short: as §1
# [11] = molecular target: Gal(b1-3)GlcNAc(b1-3)Gal(b1-4)GlcNAc(b1-2)Man(a1-3)[Gal(b1-3)GlcNAc(b1-3)Gal(b1-4)GlcNAc(b1-2)Man(a1-6)]Man(b1-4)GlcNAc(b1-4)GlcNAc
# In short: as §1
# [12] = molecular target: Gal(b1-3)GlcNAc(b1-3)Gal(b1-4)GlcNAc(b1-2)[Gal(b1-3)GlcNAc(b1-3)Gal(b1-4)GlcNAc(b1-6)]Man(a1-6)[Gal(b1-3)GlcNAc(b1-3)Gal(b1-4)GlcNAc(b1-2)Man(a1-3)]Man(b1-4)GlcNAc(b1-4)[Fuc(a1-6)]GlcNAc
# In short: as §1
# [13] = molecular target: Gal(b1-3)GlcNAc(b1-3)Gal(b1-4)GlcNAc(b1-3)Gal(b1-4)GlcNAc(b1-2)[Gal(b1-3)GlcNAc(b1-3)Gal(b1-4)GlcNAc(b1-3)Gal(b1-4)GlcNAc(b1-6)]Man(a1-6)[Gal(b1-3)GlcNAc(b1-3)Gal(b1-4)GlcNAc(b1-3)Gal(b1-4)GlcNAc(b1-2)Man(a1-3)]Man(b1-4)GlcNAc(b1-4)[Fuc(a1-6)]GlcNAc
# In short: as §1
# [14] = molecular target: Gal(b1-3)GlcNAc(b1-3)Gal(b1-4)GlcNAc(b1-6)[Gal(b1-3)GlcNAc(b1-3)]Gal(b1-4)Glc
# In short: as §1
# [15] = molecular target: Gal(b1-3)GlcNAc(b1-3)Gal(b1-4)[Fuc(a1-3)]GlcNAc(b1-6)[Gal(b1-3)GlcNAc(b1-3)]Gal(b1-4)Glc
# In short: as §1
# [16] = molecular target: Gal(b1-3)GlcNAc(b1-3)GalNAc
# In short: as §1
# [17] = molecular target: Gal(b1-3)GlcNAc(b1-6)Gal(b1-4)GlcNAc
# In short: as §1
# [18] = molecular target: Gal(b1-3)GlcNAc(b1-6)GalNAc
# In short: as §1
# [19] = molecular target: Gal(b1-3)GlcNAc(b1-6)[Gal(b1-3)]GalNAc
# In short: as §1
# [20] = molecular target: Gal(b1-3)GlcNAc6S
# In short: as §1
# [21] = molecular target: Gal(b1-3)[Fuc(a1-4)]GlcNAc
# In short: as §1
# [22] = molecular target: Gal(b1-3)[Fuc(a1-4)]GlcNAc(b1-2)Man
# In short: as §1
# [23] = molecular target: Gal(b1-3)[Fuc(a1-4)]GlcNAc(b1-2)Man(a1-3)[Gal(b1-3)[Fuc(a1-4)]GlcNAc(b1-2)Man(a1-6)]Man(b1-4)GlcNAc(b1-4)[Fuc(a1-6)]GlcNAc
# In short: as §1
# [24] = molecular target: Gal(b1-3)[Fuc(a1-4)]GlcNAc(b1-3)Gal(b1-3)[Fuc(a1-4)]GlcNAc
# In short: as §1
# [25] = molecular target: Gal(b1-3)[Fuc(a1-4)]GlcNAc(b1-3)Gal(b1-4)GlcNAc
# In short: as §1
# [26] = molecular target: Gal(b1-3)[Fuc(a1-4)]GlcNAc(b1-3)Gal(b1-4)[Fuc(a1-3)]GlcNAc
# In short: as §1
# [27] = molecular target: Gal(b1-3)[Fuc(a1-4)]GlcNAc(b1-6)GalNAc
# In short: as §1
# [28] = molecular target: Gal(b1-3)[GlcNAc(b1-6)]GalNAc
# In short: as §1
# [29] = molecular target: Gal(b1-3)[Neu5Ac(a2-6)]GalNAc
# In short: as §1
# [30] = molecular target: Gal(b1-3)[Neu5Ac(a2-6)]GlcNAc(b1-4)Gal(b1-4)Glc
# In short: as §1
# [31] = molecular target: Gal(b1-3)[Neu5Ac(a2-6)]GlcNAc(b1-6)Gal(b1-4)Glc
# In short: as §1
# [32] = molecular target: Gal(b1-3)[Neu5Ac(b2-6)]GalNAc
# In short: as §1
# [33] = molecular target: Gal(b1-4)Gal
# In short: as §1
# [34] = molecular target: Gal(b1-4)GalNAc(a1-3)[Fuc(a1-2)]Gal(b1-4)GlcNAc
# In short: as §1
# [35] = molecular target: Gal(b1-4)GalNAc(b1-3)[Fuc(a1-2)]Gal(b1-4)GlcNAc
# In short: as §1
# [36] = molecular target: Gal(b1-4)Glc
# In short: as §1
# [37] = molecular target: Gal(b1-4)Glc6S
# In short: as §1
binder,measurement,setting,value
B1,glycan array binding signal (z-score),[1],-0.139
same,glycan array binding signal (z-score),[2],-0.356
same,glycan array binding signal (z-score),[3],-0.354
same,glycan array binding signal (z-score),[4],-0.369
same,glycan array binding signal (z-score),[5],-0.352
same,glycan array binding signal (z-score),[6],-0.352
same,glycan array binding signal (z-score),[7],-0.284
same,glycan array binding signal (z-score),[8],-0.267
same,glycan array binding signal (z-score),[9],0.335
same,glycan array binding signal (z-score),[10],-0.211
same,glycan array binding signal (z-score),[11],0.068
same,glycan array binding signal (z-score),[12],0.761
same,glycan array binding signal (z-score),[13],2.98
same,glycan array binding signal (z-score),[14],-0.178
same,glycan array binding signal (z-score),[15],-0.262
same,glycan array binding signal (z-score),[16],-0.359
same,glycan array binding signal (z-score),[17],-0.35
same,glycan array binding signal (z-score),[18],-0.355
same,glycan array binding signal (z-score),[19],-0.313
same,glycan array binding signal (z-score),[20],-0.057
same,glycan array binding signal (z-score),[21],-0.386
same,glycan array binding signal (z-score),[22],-0.347
same,glycan array binding signal (z-score),[23],-0.357
same,glycan array binding signal (z-score),[24],-0.102
same,glycan array binding signal (z-score),[25],-0.076
same,glycan array binding signal (z-score),[26],-0.39
same,glycan array binding signal (z-score),[27],-0.355
same,glycan array binding signal (z-score),[28],-0.334
same,glycan array binding signal (z-score),[29],-0.373
same,glycan array binding signal (z-score),[30],-0.349
same,glycan array binding signal (z-score),[31],-0.055
same,glycan array binding signal (z-score),[32],-0.387
same,glycan array binding signal (z-score),[33],-0.356
same,glycan array binding signal (z-score),[34],0.461
same,glycan array binding signal (z-score),[35],-0.359
same,glycan array binding signal (z-score),[36],-0.199
same,glycan array binding signal (z-score),[37],0.122
